The whole screen tested about 3,200 compounds, of which about 300 (9.4%) showed activity. Only a part is listed here, and it is no random draw.
Test system: A673/TR/shEF
Experiment: cell viability (LOESS-normalised, relative to median of negative controls) (log2 ratio); higher = more viable cells (less compound effect), active = hit call of the paper (over 3 MAD below the median)
Details: treatment time: 72 h
How it was run: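 A673/TR/shEF Ewing sarcoma cells (1,500 per well, 384-well plates) were grown with or without doxycycline to induce EWS-FLI1 shRNA knockdown, starting 24 h before compounds. Library compounds at two or more concentrations, with DMSO controls, were added for three days. Cell viability was read by CellTiter-Glo luminescence on an Envision reader, then LOESS-corrected per plate, divided by the median of negative controls and log2-transformed. Hits were wells at least three median absolute deviations from the median of all screened wells.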

[1] = 0.103 µM, library screen: screen3, EWS-FLI1 expression: high (no doxycycline)
[2] = 0.103 µM, library screen: screen3, EWS-FLI1 expression: low (doxycycline-induced shRNA knockdown)
[3] = 0.308 µM, library screen: screen3, EWS-FLI1 expression: high (no doxycycline)
[4] = 0.308 µM, library screen: screen3, EWS-FLI1 expression: low (doxycycline-induced shRNA knockdown)
[5] = 0.926 µM, library screen: screen3, EWS-FLI1 expression: high (no doxycycline)
[6] = 0.926 µM, library screen: screen3, EWS-FLI1 expression: low (doxycycline-induced shRNA knockdown)
[7] = 2.8 µM, library screen: screen3, EWS-FLI1 expression: high (no doxycycline)
[8] = 2.8 µM, library screen: screen3, EWS-FLI1 expression: low (doxycycline-induced shRNA knockdown)
[9] = 8.3 µM, library screen: screen3, EWS-FLI1 expression: high (no doxycycline)
[10] = 8.3 µM, library screen: screen3, EWS-FLI1 expression: low (doxycycline-induced shRNA knockdown)
[11] = 25 µM, library screen: screen3, EWS-FLI1 expression: high (no doxycycline)
[12] = 25 µM, library screen: screen3, EWS-FLI1 expression: low (doxycycline-induced shRNA knockdown)
[13] = 0.25 µM, library screen: screen1, EWS-FLI1 expression: high (no doxycycline)
[14] = 0.25 µM, library screen: screen1, EWS-FLI1 expression: low (doxycycline-induced shRNA knockdown)
[15] = 2.5 µM, library screen: screen1, EWS-FLI1 expression: high (no doxycycline)
[16] = 2.5 µM, library screen: screen1, EWS-FLI1 expression: low (doxycycline-induced shRNA knockdown)
[17] = 0.25 µM, library screen: screen2, EWS-FLI1 expression: high (no doxycycline)
[18] = 0.25 µM, library screen: screen2, EWS-FLI1 expression: low (doxycycline-induced shRNA knockdown)
[19] = 2.5 µM, library screen: screen2, EWS-FLI1 expression: high (no doxycycline)
[20] = 2.5 µM, library screen: screen2, EWS-FLI1 expression: low (doxycycline-induced shRNA knockdown)

Measured: cell viability (log2)

C[N+]1(C)[C@@H]2CC(OC(=O)C(O)(c3cccs3)c3cccs3)C[C@H]1[C@@H]1O[C@@H]12 (some centres undefined)
inactive: [1] -0.0419 | [2] -0.0363 | [3] -0.000855 | [4] 0.0413 | [5] 0.0247 | [6] 0.0262 | [7] 0.0531 | [8] 0.0434 | [9] 0.0573 | [10] 0.11 | [11] 0.0805 | [12] 0.115

COc1ccc(C2=N[C@@H](c3ccc(Cl)cc3)[C@@H](c3ccc(Cl)cc3)N2C(=O)N2CCNC(=O)C2)c(OC(C)C)c1
inactive: [1] 0.0246 | [2] -0.0154 | [3] 0.0154 | [4] 0.057 | [5] 0.0206 | [6] 0.0793 | [7] 0.0375 | [8] 0.0497 | [9] -0.059 | [10] 0.0821 | [11] 0.0113 | [12] 0.036

Oc1cccc(O)c1
inactive: [13] 0.0925 | [14] 0.0875 | [15] 0.142 | [16] 0.202

Cc1cc(O)cc(C)c1Cl
inactive: [13] 0.056 | [14] 0.0879 | [15] 0.127 | [16] 0.149

Cc1cn(-c2cc(NC(=O)c3ccc(C)c(Nc4nccc(-c5cccnc5)n4)c3)cc(C(F)(F)F)c2)cn1
inactive: [1] 0.0821 | [2] 0.114 | [3] 0.0305 | [4] 0.0807 | [5] 0.00582 | [6] 0.101 | [7] -0.0305 | [8] 0.116 | [9] 0.0184 | [10] 0.0705 | [11] -0.057 | [12] 0.0892

O=C(O)c1cc(=O)c2c(Cl)cc(Cl)cc2[nH]1
inactive: [13] 0.0846 | [14] 0.135 | [17] -0.00888 | [18] 0.0554 | [15] 0.118 | [16] 0.0923 | [19] 0.158 | [20] 0.127

O=Nc1ccc2oc(=O)ccc2c1
inactive: [17] 0.113 | [18] 0.142 | [19] 0.0947 | [20] 0.064

Brc1cccc(CN2CCN(Cc3cccnc3)CC2)c1
inactive: [13] 0.0662 | [14] 0.0708 | [15] 0.0924 | [16] 0.02

O=[N+]([O-])c1ccc(CSc2ncnc3c2ncn3[C@@H]2O[C@H](CO)[C@@H](O)[C@H]2O)cc1
inactive: [17] 0.1 | [18] 0.125 | [19] 0.102 | [20] 0.0798

O=C(O)c1cn(-c2ccccc2)nc1-c1ccc(F)cc1
inactive: [13] 0.0839 | [14] -0.00121 | [15] 0.0458 | [16] -0.135

CC(C)(C)c1ccc(S(=O)(=O)/C=C/C#N)cc1
active: [19] -0.121

CC(N)CCCC(C)(C)O (centres undefined)
inactive: [13] 0.0899 | [14] 0.138 | [15] 0.00546 | [16] 0.0221

CC(C)OC(=O)C(C)(C)Oc1ccc(C(=O)c2ccc(Cl)cc2)cc1
inactive: [1] 0.0904 | [2] 0.0244 | [13] 0.109 | [14] 0.0611 | [17] 0.188 | [18] 0.0261 | [3] 0.116 | [4] 0.0872 | [5] 0.0421 | [6] 0.0755 | [15] 0.186 | [16] 0.142 | [19] 0.0575 | [20] 0.0327 | [7] 0.032 | [8] 0.0509 | [9] 0.0776 | [10] 0.0557 | [11] 0.0748 | [12] 0.0945

NC(=O)CC[C@H](N)C(=O)O
inactive: [1] 0.0442 | [2] 0.0656 | [13] 0.128 | [14] 0.0229 | [17] 0.13 | [18] 0.0668 | [3] 0.114 | [4] 0.0554 | [5] 0.0561 | [6] 0.113 | [15] 0.12 | [16] 0.0891 | [19] 0.115 | [20] 0.0189 | [7] 0.182 | [8] 0.148 | [9] 0.111 | [10] 0.0635 | [11] 0.145 | [12] 0.14

O=C(CCNNC(=O)c1ccncc1)NCc1ccccc1
inactive: [17] 0.188 | [18] 0.0772 | [19] 0.124 | [20] 0.0622

CCCn1c(=O)c2[nH]c(C3CCCC3)nc2n(CCC)c1=O
inactive: [13] 0.0747 | [14] 0.0483 | [17] 0.168 | [18] 0.0953 | [15] 0.128 | [16] 0.132 | [19] 0.141 | [20] 0.106

CCC(=O)c1ccc2c(c1)N(CCCN(C)C)c1ccccc1S2
inactive: [17] 0.24 | [18] 0.09 | [19] 0.196 | [20] 0.146

Cc1nc2ccccn2c(=O)c1CCN1CCC(C(=O)c2ccc(F)cc2)CC1
inactive: [13] 0.119 | [14] 0.184 | [17] 0.229 | [18] 0.127 | [15] 0.124 | [16] 0.101 | [19] 0.243 | [20] 0.107

COC1CCC2(C)C(CCC3C2CCC2(C)C(C(C)CCCC(C)C)CCC32)C1 (centres undefined)
inactive: [13] -0.00918 | [14] 0.0236 | [15] 0.0903 | [16] 0.091

C#Cc1cccc(Nc2ncnc3cc(OCCOC)c(OCCO)cc23)c1
inactive: [1] -0.021 | [2] 0.0228 | [3] -0.00557 | [4] 0.0307 | [5] -0.00846 | [6] 0.063 | [7] 0.0648 | [8] 0.0201 | [9] -0.0295 | [10] 0.0604 | [11] -0.0784 | [12] -0.0862

NC(=O)c1cnccn1
inactive: [1] 0.0912 | [2] 0.0273 | [13] 0.0879 | [14] 0.0742 | [17] 0.0855 | [18] 0.071 | [3] 0.124 | [4] 0.0104 | [5] 0.114 | [6] 0.0339 | [15] 0.115 | [16] 0.137 | [19] 0.152 | [20] 0.0505 | [7] 0.201 | [8] 0.076 | [9] 0.0479 | [10] 0.0421 | [11] 0.139 | [12] 0.066

CC1(C)CC(=O)C2=C(C1)Nc1ccccc1N(C(=O)Cc1ccc(Cl)cc1)C2c1cccnc1 (centres undefined)
inactive: [13] 0.0404 | [14] 0.0353 | [15] 0.127 | [16] 0.0963

Cc1cc2ncc(-c3ccccc3)nc2cc1C
active: [15] -0.0894 | 25 µM, library screen: screen1, EWS-FLI1 expression: high (no doxycycline) -0.147
inactive: 0.025 µM, library screen: screen1, EWS-FLI1 expression: high (no doxycycline) 0.21 | 0.025 µM, library screen: screen1, EWS-FLI1 expression: low (doxycycline-induced shRNA knockdown) 0.0761 | [13] 0.265 | [14] 0.0996 | [16] 0.141 | 25 µM, library screen: screen1, EWS-FLI1 expression: low (doxycycline-induced shRNA knockdown) 0.0902

CC(=O)O[C@H]1C(=O)[C@@]2(C)[C@H]([C@H](OC(=O)c3ccccc3)[C@]3(O)C[C@H](OC(=O)[C@H](O)[C@@H](NC(=O)c4ccccc4)c4ccccc4)C(C)=C1C3(C)C)[C@]1(OC(C)=O)CO[C@@H]1C[C@@H]2O
active: [1] -2.57 | [2] -0.853 | [13] -3.63 | [14] -1.46 | [17] -2.49 | [18] -0.868 | [3] -2.24 | [4] -0.787 | [5] -2.68 | [6] -0.947 | [15] -4.22 | [16] -1.51 | [19] -2.93 | [20] -1 | [7] -2.59 | [8] -1.11 | [9] -2.75 | [10] -1.03 | [11] -2.68 | [12] -1.1

NC1CONC1=O (centres undefined)
inactive: [17] 0.18 | [18] 0.11 | [19] 0.099 | [20] 0.0745

COc1cccc2c1C(=O)c1c(O)c3c(c(O)c1C2=O)C[C@@](O)(C(=O)CO)C[C@@H]3O[C@H]1C[C@H](N)[C@@H](O)[C@H](C)O1
active: [1] -0.347 | [2] -0.195 | [3] -1.12 | [4] -0.399 | [5] -1.58 | [6] -0.41 | [7] -3.26 | [8] -1.19 | [9] -4.26 | [10] -4.27 | [11] -4.26 | [12] -4.25

C/C=C/c1ccc(OC)cc1
inactive: [13] 0.0922 | [14] 0.0583 | [15] 0.101 | [16] 0.0905

C=C(C)[C@@H]1CC[C@]2(CO)CC[C@]3(C)[C@H](CC[C@@H]4[C@@]5(C)CC[C@H](O)C(C)(C)[C@@H]5CC[C@]43C)[C@@H]12
inactive: [13] -0.00995 | [14] -0.0271 | [15] 0.0576 | [16] -0.00146

COc1cc2c(cc1OC)[C@@H]1C(=O)c3c(O)cc4c(c3O[C@@H]1CO2)C=CC(C)(C)O4
inactive: [16] -0.138
active: [13] -0.205 | [14] -0.261 | [15] -0.213

N=C(N)c1ccc(N)cc1
inactive: [17] 0.132 | [18] 0.0859 | [19] 0.0987 | [20] 0.121

CCCN(CCC)CCc1cccc2c1CC(=O)N2
active: [17] -0.0806 | [18] -0.203 | [19] -3.18 | [20] -2.79

CCN1CCN(C(=O)NC(C(=O)NC2C(=O)N3C(C(=O)O)=C(CSc4nnnn4C)CSC23)c2ccc(O)cc2)C(=O)C1=O (centres undefined)
inactive: [13] 0.138 | [14] 0.138 | [15] 0.0778 | [16] 0.154

COc1ccc2cc([C@H](C)C(=O)O)ccc2c1
inactive: [17] 0.155 | [18] 0.0708 | [19] 0.14 | [20] 0.0958
